{
  "source": "patent US12630643B2",
  "about": "“CD40 binding protein, bispecific conjugate thereof and method of treating cancer” (priority 2020, dated 2026)",
  "molecular_target": "interaction between CD40 ligand (CD40L) and human CD40 (Homo sapiens, UniProt P25942)",
  "sequence (P25942 21-193)": "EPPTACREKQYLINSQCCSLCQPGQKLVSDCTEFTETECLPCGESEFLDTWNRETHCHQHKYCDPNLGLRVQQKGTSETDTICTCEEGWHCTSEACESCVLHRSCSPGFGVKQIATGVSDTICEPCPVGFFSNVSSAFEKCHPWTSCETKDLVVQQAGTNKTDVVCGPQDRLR",
  "experiment": "CD40 ligand inhibition by SPR",
  "conditions": "20 nM hCD40-Fc pre-incubated with 10 times molar excess of CD40 ligand",
  "data": [
    {"substance": "X-SM083-ab-5: agonistic anti-CD40 antibody CP-870,893 (US 2017/0342159) as hIgG2 [reference compound]", "values": [
      {"measurement": "binding to CD40-Fc with CD40 ligand present", "value": "unaffected by the presence of CD40 ligand"}
    ]}
  ]
}
